Assay results taken from the antibiotic and cytotoxicity screens of Wong et al. (2023).
Some of the results follow.

Legend:
HSkMC = human skeletal muscle cells; assay: cytotoxicity call (relative viability < 0.9); details: 10 µM
HepG2 = assay: cytotoxicity call (relative viability < 0.9); details: 10 µM
S. aureus RN4220 = assay: growth inhibition call (relative growth <= 0.2); details: 50 µM

O=C(C[C@H]1C[C@@H]2c3cc(NC(=O)C4CCOCC4)ccc3O[C@@H]2[C@@H](CO)O1)NCc1ccc2c(c1)OCO2
inactive: cytotoxicity call (HSkMC) | cytotoxicity call (HepG2) | growth inhibition call (S. aureus RN4220)

Cc1noc(C)c1S(=O)(=O)Nc1ccc2c(c1)C(=O)N([C@H](C)CO)C[C@@H](C)[C@H](CN(C)S(C)(=O)=O)O2
inactive: cytotoxicity call (HSkMC) | cytotoxicity call (HepG2) | growth inhibition call (S. aureus RN4220)

C[C@H](CO)N1C[C@H](C)[C@H](CN(C)S(=O)(=O)c2cn(C)cn2)Oc2ccc(NC(=O)Cc3cn(C)c4ccccc34)cc2C1=O
inactive: cytotoxicity call (HSkMC) | cytotoxicity call (HepG2) | growth inhibition call (S. aureus RN4220)

C[C@@H]1CN([C@@H](C)CO)S(=O)(=O)c2ccc(C#CCN(C)C)cc2O[C@@H]1CN(C)Cc1ccccn1
inactive: cytotoxicity call (HSkMC) | cytotoxicity call (HepG2) | growth inhibition call (S. aureus RN4220)

C[C@H](CO)N1C[C@H](C)[C@@H](CN(C)Cc2cccc(F)c2)Oc2cc(C#CC3CC3)ccc2S1(=O)=O
inactive: cytotoxicity call (HSkMC) | cytotoxicity call (HepG2) | growth inhibition call (S. aureus RN4220)

Cc1noc(C)c1S(=O)(=O)N(C)C[C@@H]1Oc2c(NC(=O)c3cnccn3)cccc2C(=O)N([C@H](C)CO)C[C@@H]1C
inactive: cytotoxicity call (HSkMC) | cytotoxicity call (HepG2) | growth inhibition call (S. aureus RN4220)

CCc1cn([C@H]2C[C@H](O)[C@@H](CO)O2)c(=O)[nH]c1=O
inactive: cytotoxicity call (HSkMC) | cytotoxicity call (HepG2) | growth inhibition call (S. aureus RN4220)

CNC[C@@H]1Oc2ccc(NC(=O)CCN3CCOCC3)cc2CC(=O)N([C@@H](C)CO)C[C@@H]1C
inactive: cytotoxicity call (HSkMC) | cytotoxicity call (HepG2) | growth inhibition call (S. aureus RN4220)

CCS(=O)(=O)Nc1ccc2c(c1)C(=O)N(C)[C@@H]1CC[C@H](CC(=O)NCc3ccc(OC)cc3)O[C@H]1CO2
inactive: cytotoxicity call (HSkMC) | cytotoxicity call (HepG2) | growth inhibition call (S. aureus RN4220)

CN1CCSC1=N
inactive: cytotoxicity call (HSkMC) | cytotoxicity call (HepG2) | growth inhibition call (S. aureus RN4220)
